Reference: paper PMC4336329 (PLoS ONE, 2015)
The campaign covered roughly 310,000 compounds. About 2,200 (0.71%) showed an effect of 50% or more. Effects have a minus sign here. Some of the results follow.

These compounds were tested against human ether-à-go-go-related gene (hERG) potassium channel (human, UniProt Q12809) (assay: primary screen, population patch clamp on CHO cells stably expressing hERG).
human ether-à-go-go-related gene (hERG) potassium channel, sequence (Q12809 whole entry, looked up): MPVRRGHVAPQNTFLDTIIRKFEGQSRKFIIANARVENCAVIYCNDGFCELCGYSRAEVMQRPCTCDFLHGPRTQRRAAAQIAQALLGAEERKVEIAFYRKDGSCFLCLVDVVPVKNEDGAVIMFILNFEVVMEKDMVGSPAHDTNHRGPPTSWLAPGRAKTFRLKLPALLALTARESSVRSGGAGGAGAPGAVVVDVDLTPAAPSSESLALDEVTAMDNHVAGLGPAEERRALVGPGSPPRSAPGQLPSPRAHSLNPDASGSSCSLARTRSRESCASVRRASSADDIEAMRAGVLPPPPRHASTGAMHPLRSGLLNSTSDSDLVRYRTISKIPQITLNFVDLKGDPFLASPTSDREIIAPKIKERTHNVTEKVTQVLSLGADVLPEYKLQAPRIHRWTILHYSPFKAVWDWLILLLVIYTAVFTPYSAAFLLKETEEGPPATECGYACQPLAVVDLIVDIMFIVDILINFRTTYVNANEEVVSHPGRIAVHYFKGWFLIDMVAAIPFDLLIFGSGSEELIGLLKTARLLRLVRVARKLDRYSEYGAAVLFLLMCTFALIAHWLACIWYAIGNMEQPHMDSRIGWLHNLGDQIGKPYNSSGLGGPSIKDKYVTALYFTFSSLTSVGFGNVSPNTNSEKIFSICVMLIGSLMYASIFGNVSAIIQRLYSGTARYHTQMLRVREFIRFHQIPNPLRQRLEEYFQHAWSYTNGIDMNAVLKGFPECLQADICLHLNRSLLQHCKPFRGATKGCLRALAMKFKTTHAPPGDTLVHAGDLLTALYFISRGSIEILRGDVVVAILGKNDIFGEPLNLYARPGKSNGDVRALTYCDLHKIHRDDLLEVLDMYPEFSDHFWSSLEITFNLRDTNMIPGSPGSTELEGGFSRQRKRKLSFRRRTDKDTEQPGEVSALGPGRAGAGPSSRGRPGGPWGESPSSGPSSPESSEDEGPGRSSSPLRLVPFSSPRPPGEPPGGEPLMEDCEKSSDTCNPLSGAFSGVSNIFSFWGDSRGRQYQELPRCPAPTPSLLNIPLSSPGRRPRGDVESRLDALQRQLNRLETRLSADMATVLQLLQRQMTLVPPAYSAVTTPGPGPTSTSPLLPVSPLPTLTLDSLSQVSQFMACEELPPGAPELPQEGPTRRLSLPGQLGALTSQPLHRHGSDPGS

Row | SMILES | hERG current change (%, negative = inhibition) at 1uM [%]
1 | C/C(=N\NC(=O)c1cc(C)nc2ccccc12)c1cccs1 | 5.24
2 | CC(C)(C)n1ncc2c(=O)n(CC(=O)NCc3ccco3)cnc21 | 1.26
3 | COc1cccc(OCC(O)CO)c1 (stereo not drawn) | 4.53
4 | N#CCCn1cnc2ccccc21 | 12.9
5 | Cc1cc(C)cc(OCC(=O)Nc2ccc(N3CCOCC3)cc2N2CCOCC2)c1 | 2.48
6 | CNC(=S)N(CCc1c(C)[nH]c2ccc(OC)cc12)Cc1cc(OC)c(OC)c(OC)c1 | 8.79
7 | COc1ccccc1NC(=S)NC(=O)C1CC1 | 7.83
8 | CN1/C(=C\C=[N+](C)c2ccccc2)C(C)(C)c2ccccc21.[I-] | -8.39
9 | Cc1cc(O)c2c(c1)C(O)(C1OC(CO)C(O)C(O)C1O)c1cccc(O)c1C2=O (stereo not drawn) | 8.45
10 | Cc1ccc2c(CC(=O)Nc3sccc3C(N)=O)coc2c1 | -2.41
11 | COc1ccc(CNC(=O)c2c(F)c(F)c(F)c(F)c2F)cc1 | -13
12 | COC(=O)c1cn(NC(=O)c2cccc(N(C)C)c2)c(=O)c2ccccc12 | 18.2
13 | Cc1cc(CN(C)C(=O)C2CCC(=O)N(CCc3cccc(F)c3)C2)on1 (stereo not drawn) | 2.51
14 | OCC1(Cc2ccccc2)CCCN(Cc2cn[nH]c2-c2ccccc2)C1 (stereo not drawn) | 6.96
15 | COc1cccc(CN2CCNC(=O)C2CC(=O)N(C)C2CCCCC2)c1 (stereo not drawn) | 11.6
16 | COc1ccc(/C=C/C(=O)O)cc1O | 14
17 | CCCCN(C(=O)c1[nH]c(C)c(C(=O)OCC)c1C)c1c(N)n(CCCC)c(=O)[nH]c1=O | 8.9
18 | CC(C)(C)OC(=O)N1CCC(NC(=O)c2nc[nH]c2C(=O)NCc2ccccc2)CC1 | 22.5
19 | c1cncc(-c2nnc(SCc3cccc4ccccc34)o2)c1 | 0.0047

Row | SMILES | hERG current change (%, negative = inhibition) at 1uM [%]
20 | CCCCn1c(SCC(=O)Nc2cccc(C)n2)nnc1-c1ccco1 | -78
21 | COc1cccc(C(=O)CSc2nnc(COc3cccc4cccnc34)o2)c1 | 14.8
22 | COc1ccc(Cc2nnc(Nc3ccccc3)s2)cc1Br | 12.8
23 | CCCCc1ccc(NC(=O)CSc2nc(=O)n3cc(C)ccc3n2)cc1 | 13.8
24 | Cc1ccc(S(=O)(=O)N(CC(=O)N2CCN(c3ccccc3F)CC2)C2CCCCC2)cc1 | 2.56
25 | O=C1C2=C(CCCC2)C(=O)N1c1cccc(OCCBr)c1 | 14.6
26 | CCOc1cc(NC2CS(=O)(=O)CC2O)c(OCC)cc1NC(=O)c1ccccc1 (stereo not drawn) | 10.5
27 | O=S1(=O)CCOC[C@H](CC2CCCCC2)N1Cc1cccc(Cl)c1 | -4.14
28 | COc1ccc(C(O)(c2ccccc2OC)C(CN2CCOCC2)c2ccccc2)cc1.Cl (stereo not drawn) | 7.97
29 | Cc1cc(/C=C2/SC(=S)N(c3cccc(Cl)c3)C2=O)c(C)n1-c1cccnc1 | 4.88
30 | O=C1CC(c2ccccc2)c2ccc(O)cc2O1 (stereo not drawn) | 11.8
31 | CC(=O)c1cnc(Nc2cccc(C)c2)s1 | 7.68
32 | COC(=O)c1sccc1NC(=O)Nc1ccc(F)cc1F | 7.72
33 | CCOc1ccc(-n2nnc3c(=O)n(CC(=O)c4ccccc4)cnc32)cc1 | 7.29
34 | Cc1ccccc1OCC(=O)Nc1nnc(C2CC2)s1 | 13.4
35 | O=C(N/N=C/c1cc([N+](=O)[O-])ccc1O)C12CC3CC(CC(C3)C1)C2 | 14.7
36 | O=C(NC1CCCCC1)c1ccc(COc2ccccc2)o1 | 11.8
37 | CCOC(=O)N1CCN(c2nc(-c3ccc(Cl)cc3)cs2)CC1 | -8.51
38 | CN(C)C(=O)c1ccc(NC(=O)CN2C(=O)NC3(CCCc4ccccc43)C2=O)cc1 (stereo not drawn) | 7.64

Row | SMILES | hERG current change (%, negative = inhibition) at 1uM [%]
39 | COc1ccc(CCN(C)C(=O)c2cc(=O)c3ccccc3o2)cc1OC | 15.8
40 | COc1ccc(C2/C(=C(\O)c3ccc4c(c3)OCCO4)C(=O)C(=O)N2CCCn2ccnc2)cc1 (stereo not drawn) | 5.54
41 | CNC(=O)c1c(NC(NC(=O)c2ccco2)C(=O)c2ccc(Cl)cc2)sc2c1CCCC2 (stereo not drawn) | 10.1
42 | COC(=O)C1C2C=CC(C3CC23)C1C(=O)OCC(=O)c1ccc(OC)cc1 (stereo not drawn) | 6.58
43 | COc1cc(C(=O)NCC(=O)NC(C)c2ccc(-n3ccnc3)cc2)cc(OC)c1OC (stereo not drawn) | 7.75
44 | CCc1nc2ccccc2c(=O)n1/N=C/c1ccc(Cl)cc1 | -6.86
45 | COc1ccc(C2CC(=O)NC3=C2C(=O)CCC3)cc1Cl (stereo not drawn) | 11.1
46 | C/C(=N\N1CCN(c2ccc(Cl)cc2)CC1)c1ccco1 | 8.12
47 | CN(CCCNC(=O)c1cccn2c(=O)c3ccccc3nc12)Cc1ccccc1 | -75.3
48 | COc1ccc(-c2cc(C(=O)NCCN3CCOCC3)c3ccccc3n2)cc1 | -1.54
49 | O=C(CCc1nc(-c2ccccc2F)no1)Nc1ccc(Oc2ccccc2)cc1 | 10.1
50 | COc1cc(NC(=O)CN2C(=O)CSc3ccc(S(=O)(=O)N4CCCC4)cc32)cc(OC)c1 | 10.8
51 | CC(=O)N(C)c1ccc(NC(=O)c2ccco2)cc1 | 12.2
52 | CCOC(=O)C1=C(C)N(C)C(C)=C(C(=O)OCC)C1c1cccnc1 | 2.03
53 | Cc1ccc(CSc2nnc(-c3ccc(NS(=O)(=O)c4ccccc4)cc3)o2)cc1 | 3.68
54 | CCOc1cccc(CNn2cnnc2)c1OCc1ccccc1 | -0.546
55 | O=C(O)c1cc(NCc2cccs2)ccc1N1CCOCC1 | -1.14
56 | O=C(NCc1cccs1)c1cc(-c2ccccc2)nc2ccccc12 | 10.4
57 | COc1ccc(-c2nn3c(C4CCCCC4)nnc3s2)cc1OC | 3.73
